Data from PubChem BioAssay AID902 (National Center for Advancing Translational Sciences (NCATS), 2007).
Hit rate of the full screen: of about 130,000 compounds, about 1,900 (1.5%) were called active. This list was built around the results that the source calls inconclusive (neither active nor inactive); the mix of calls is not that of the screen. Calls come from the whole dose curve; as a rule, active = well fitted cell-killing curve with a large enough effect; inconclusive = small, poorly fitted or top-dose-only effect; inactive = no such curve, though single readings can be large or run the other way. Potencies of inconclusive entries are doubtful fits and often do not repeat.

Experiment: qHTS Screen for Compounds that Selectively Target Cancer Cells with p53 Mutations: Cytotoxicity of p53ts Cells at the Nonpermissive Temperature; note: nearly all actives have a fitted effect of over 55% in size
Conditions: H1299-p53A138V viability at 39C, ATP luminescence, 24 h; activity change, negative = cell killing: at 46.1 µM (top of the series)
% is set by controls: 0 for no effect and ±100 for the full control effect; potency is the fitted concentration of half-maximal effect; tags give direction and shape of the fitted curve.

For CCC(CC)C(=O)Nc1ccc(OCc2cc(=O)n3ccc(C)cc3n2)cc1, which “activity change, negative = cell killing” value is on record?
The value was inactive: -1.16%.

Which Potency does the source give for Cc1oc(-c2ccc(Cl)cc2)nc1CN1CCC(C(=O)N2CCN(Cc3ccccc3)CC2)CC1 here?
The Potency was inconclusive: 15.8 µM [cytotoxic, single point].

Which “activity change, negative = cell killing” value does the source give for CCOc1ccccc1N1CC(c2nc3ccccc3n2CCCOc2ccccc2)CC1=O (centres undefined) here?
Its value is inactive: -17.9%.

Which Potency does the source give for Cc1cc2ncc(-c3ccc(Cl)cc3)c(N)n2n1 here?
Its Potency is inconclusive: 15.8 µM [cytotoxic, single point].

For Cc1ccc(-c2noc(-c3ccccc3Br)n2)cc1, which Potency is on record?
Its Potency is active: 10 µM.

Which Potency does the source give for CN(C)c1ccc(-c2nc3ccccc3n2C)cc1 here?
The Potency was active: 0.794 µM.

With CCCCc1ccc(-c2nc(N)n[nH]2)cc1 as the molecule, how does the Potency read?
Its Potency is inconclusive: 12.6 µM [cytotoxic, partial curve].

For O=C(Nc1ccc(OC(F)(F)F)cc1)C1CCCN(S(=O)(=O)c2ccc(Br)s2)C1 (centres undefined), which Potency is on record?
The Potency was inconclusive: 12.6 µM [cytotoxic, partial curve].

With COc1cc(-c2[o+]c3cc(O)cc(O)c3cc2O)cc(O)c1O as the molecule, how does the activity change, negative = cell killing read?
Its activity change, negative = cell killing is inactive: 8.89% [at 9.22 µM].

Which “activity change, negative = cell killing” value does the source give for Cc1cccc(CNc2ccnc(-c3ccoc3)n2)c1 here?
Its value is inactive: -16.3%.

Which Potency does the source give for COc1ccc(NC(=S)NC(NC(=O)c2cccc(Cl)c2)C(Cl)(Cl)Cl)c([N+](=O)[O-])c1 (centres undefined) here?
Its Potency is inconclusive: 35.5 µM [cytotoxic, single point].

For CCCN(CCC)C(=O)c1c[nH]c2ccc(S(=O)(=O)N(C)c3ccc(OCC)cc3)cc2c1=O, which “activity change, negative = cell killing” value is on record?
Its value is inactive: 15.5%.

Which Potency does the source give for COc1ccc(Nc2cc(C(=O)NCCCN3CCN(C)CC3)c3ccccc3n2)cc1OC here?
The Potency was inconclusive: 12.6 µM [cytotoxic, single point].

For COCCCNC(=O)C1CCCN(c2ncnc3onc(C)c23)C1 (centres undefined), which “activity change, negative = cell killing” value is on record?
The value was inactive: 1.74%.

For CCc1ccc(C(=O)c2cn(CC(=O)Nc3ccc4c(c3)OCCO4)c3ccc(CC)cc3c2=O)cc1, which Potency is on record?
The Potency was inconclusive: 31.6 µM [cytotoxic, single point].

For CCOC(=O)c1ccc(CN(Cc2ccc(OC)cc2)S(=O)(=O)c2cccc(C(F)(F)F)c2)cc1, which “activity change, negative = cell killing” value is on record?
Its value is inactive: -19.9%.

For CCOc1ccc(N(CC)C(=O)c2noc3c2COc2ccc(C)cc2-3)cc1, which Potency is on record?
Its Potency is inconclusive: 3.16 µM [cytotoxic, single point].

With COC(=O)CNC(=O)[C@@]1(C)C=C[C@@H](Cc2ccccc2)N1C(C)=O as the molecule, how does the “activity change, negative = cell killing” value read?
Its value is inactive: -7.95%.

With COc1cc(OC)c(OC)cc1CNc1cc(C)ccc1OC as the molecule, how does the “activity change, negative = cell killing” value read?
The value was inactive: 8.73%.

With CCOC(=O)Cn1c(=O)n(CC2CCCO2)c2nc(-c3ccccc3Cl)nc(C(N)=O)c21 (centres undefined) as the molecule, how does the Potency read?
Its Potency is inconclusive: 1.58 µM [cytotoxic, full curve, poor fit].

For CCn1c2ccccc2c2cc(CN3CCN(Cc4ccc(OC)c(OC)c4)CC3)ccc21, which Potency is on record?
The Potency was active: 25.1 µM.

Which “activity change, negative = cell killing” value does the source give for CCn1c(/C=N/n2cnnc2)nc2ccccc21 here?
Its value is inactive: 2.45%.

With CCCn1c(/C=C/c2ccccc2)nc2ccccc21 as the molecule, how does the Potency read?
Its Potency is active: 10 µM.

With COc1cccc(C(=O)Nc2cccc(OC(C)=O)c2)c1 as the molecule, how does the Potency read?
The Potency was inconclusive: 20 µM [cytotoxic, single point].

With CCn1c(CN2CCCCC2)nc2cc(NC(=O)COc3ccccc3C(C)(C)C)ccc21 as the molecule, how does the “activity change, negative = cell killing” value read?
The value was inactive: 11.9%.

Which Potency does the source give for O=C(NCCc1ccc(Cl)cc1)C(=O)NCC(c1ccco1)S(=O)(=O)c1ccccc1 (centres undefined) here?
The Potency was inconclusive: 31.6 µM [cytotoxic, single point].

For Cc1ccc(NC(=O)C(=O)NCC(c2cccnc2)N2CCN(C)CC2)cc1 (centres undefined), which Potency is on record?
Its Potency is inconclusive: 31.6 µM [cytotoxic, single point].

For COCc1ccc2oc(C(=O)O)cc2c1, which Potency is on record?
Its Potency is inconclusive: 15.8 µM [cytotoxic, partial curve].

With C/C(=N\NC(=S)NCCc1ccccc1)c1ccc(C)cc1 as the molecule, how does the “activity change, negative = cell killing” value read?
Its value is inactive: 7.44%.

Which Potency does the source give for CCOc1ccc(-c2nnc(N(CC)C(=O)C3CCC3)s2)cc1 here?
The Potency was inconclusive: 10 µM [cytotoxic, partial curve].

Which Potency does the source give for Nc1c(S(=O)(=O)O)cc(Nc2ccc(Nc3nc(Cl)nc(Nc4ccc(S(=O)(=O)O)cc4)n3)c(S(=O)(=O)O)c2)c2c1C(=O)c1ccccc1C2=O here?
The Potency was inconclusive: 10 µM [cytotoxic, partial curve].

With COc1ccc(-n2c(SCC(=O)NCc3ccccc3)nc3c([nH]c4ccccc43)c2=O)cc1 as the molecule, how does the activity change, negative = cell killing read?
The activity change, negative = cell killing was inconclusive: -30.4% [cytotoxic].

Which Potency does the source give for Cc1ccc(S(=O)(=O)/C=C\C#N)cc1 here?
Its Potency is active: 12.6 µM.

For CCc1cc(C(=O)Nc2ccccc2)cs1, which Potency is on record?
Its Potency is inconclusive: 2.51 µM [cytotoxic, partial curve, poor fit].

Which Potency does the source give for Cc1cc(=O)n2[nH]c(-c3ccc(Cl)cc3)cc2n1 here?
The Potency was inconclusive: 12.6 µM [cytotoxic, partial curve].

For NCCC[C@H](N)CC(=O)N[C@H]1CNC(=O)[C@@H]([C@@H]2C[C@H](O)N=C(N)N2)NC(=O)/C(=C/NC(N)=O)NC(=O)[C@@H](CO)NC(=O)[C@@H](CO)NC1=O, which “activity change, negative = cell killing” value is on record?
The value was inactive: 7.03% [at 20.6 µM].

For Nc1c(C(=O)Nc2ccccc2)sc2nc3c(cc12)CN(Cc1ccccc1)CC3, which Potency is on record?
The Potency was inconclusive: 25.1 µM [cytotoxic, single point].

Which “activity change, negative = cell killing” value does the source give for COc1ccc(N2C(=O)C(Cl)=C(N(CCO)Cc3ccccc3)C2=O)cc1 here?
Its value is inactive: -2.49%.

For Cc1nc(N2CCCC2)c2c(C(=O)N3CCN(c4cc(Cl)ccc4C)CC3)c(C)oc2n1, which Potency is on record?
Its Potency is inconclusive: 1.26 µM [cytotoxic, single point].

Which Potency does the source give for CCCC(=O)N1CCN(c2nc3ccc(F)cc3s2)CC1 here?
Its Potency is inconclusive: 12.6 µM [cytotoxic, partial curve].

With COC(=O)c1cc2oc3ccccc3c2n1CC(=O)Nc1ccc(C)c(F)c1 as the molecule, how does the Potency read?
Its Potency is inconclusive: 12.6 µM [cytotoxic, single point].

Which Potency does the source give for COc1cc(OC)c(NC(=O)c2cc3c(=O)oc4ccc(C)cc4c3s2)cc1Cl here?
Its Potency is inconclusive: 3.98 µM [cytotoxic, full curve, poor fit].

Which Potency does the source give for Cc1ccc(-n2ncc3c(NCCO)ncnc32)cc1Cl here?
The Potency was active: 15.8 µM.

With O=C(c1cc(-c2ccc(Cl)cc2)on1)N1CCOCC1 as the molecule, how does the Potency read?
Its Potency is active: 12.6 µM.

Which Potency does the source give for COc1ccc(S(=O)(=O)Nc2cccc(-c3ccc(N4CCC(C)CC4)nn3)c2)c(OC)c1 here?
The Potency was active: 15.8 µM.

For COc1cc(NC(=O)c2ccc3oc(=O)c(S(=O)(=O)c4ccccc4)cc3c2)cc(OC)c1, which Potency is on record?
The Potency was inconclusive: 25.1 µM [cytotoxic, single point].

With Cc1c(Cl)cccc1NC(=O)Cn1c(=O)n(Cc2ccco2)c(=O)c2sc3ccccc3c21 as the molecule, how does the Potency read?
The Potency was inconclusive: 0.501 µM [cytotoxic, full curve].

With O=C(CCCCn1c(=O)c2ccccc2n(CC(=O)Nc2cccc(C(F)(F)F)c2)c1=O)NCc1ccc2c(c1)OCO2 as the molecule, how does the Potency read?
Its Potency is inconclusive: 12.6 µM [cytotoxic, partial curve].

Which Potency does the source give for Cc1ccccc1NC(=O)c1ccc2[nH]c(C)c(C)c2c1 here?
The Potency was inconclusive: 15.8 µM [cytotoxic, single point].

Which Potency does the source give for Cc1ncsc1C(=O)Nc1nc2c(s1)CC(C)CC2 (centres undefined) here?
Its Potency is active: 15.8 µM.

With COc1ccc(Oc2ncc3nc(-c4ccc(OC)cc4)c(=O)n(Cc4cccs4)c3n2)cc1 as the molecule, how does the “activity change, negative = cell killing” value read?
Its value is inactive: 8.15%.

For Cc1cc(C)c(S(=O)(=O)Nc2ccc(-c3ccc(N4CCCCCC4)nn3)cc2)c(C)c1, which Potency is on record?
Its Potency is inconclusive: 7.94 µM [cytotoxic, partial curve].

For CCOC(=O)CCCN, which activity change, negative = cell killing is on record?
The activity change, negative = cell killing was inactive: 6.14% [at 9.22 µM].

Which Potency does the source give for COc1ccc(OCC(=O)NCc2ccc3c(c2)CCN3C(=O)c2ccc(F)cc2)cc1 here?
The Potency was inconclusive: 25.1 µM [cytotoxic, partial curve].

With NC1=N[C@H](c2ccc(Cl)cc2)N(c2ccc(S(N)(=O)=O)cc2)C(N)=N1 as the molecule, how does the activity change, negative = cell killing read?
Its activity change, negative = cell killing is inactive: 3.89% [at 9.22 µM].

Which activity change, negative = cell killing does the source give for Cc1[nH]c(C)c(CN(C)C)c1CN(C)C here?
The activity change, negative = cell killing was inactive: 4.01% [at 9.22 µM].

With CC(C)c1cccc2c([Si](C)(C)C)c3c(nc12)-c1cccc(=O)n1C3 as the molecule, how does the Potency read?
Its Potency is inconclusive: 31.6 µM [cytotoxic, single point].

For Cc1cc2c(C)nc(-c3ccccc3)nc2o1, which “activity change, negative = cell killing” value is on record?
The value was inactive: -0.533%.

With Cc1ccc(Cn2c(CN3CCC(C(=O)NCCc4ccccc4)CC3)cc3ccccc32)cc1 as the molecule, how does the Potency read?
The Potency was inconclusive: 7.94 µM [cytotoxic, partial curve, poor fit].

With Cc1nn(-c2ccc(N3CCCC3)nn2)c(C)c1CCC(=O)Nc1ccc(F)c(Cl)c1 as the molecule, how does the Potency read?
Its Potency is inconclusive: 22.4 µM [cytotoxic, single point].

For O=C(NCCc1nc2ccccc2n1Cc1ccc(Cl)cc1Cl)c1ccco1, which Potency is on record?
Its Potency is inconclusive: 0.0398 µM [cytotoxic, full curve, poor fit].

For CCN(CCCNC(=O)c1cc2c(Cl)nc3ccccc3c2s1)Cc1ccccc1, which Potency is on record?
Its Potency is inconclusive: 20 µM [cytotoxic, single point].

With COc1cccc2cc(-c3nnc(Nc4c(F)cccc4F)s3)c(=O)oc12 as the molecule, how does the Potency read?
The Potency was inconclusive: 1.58 µM [cytotoxic, partial curve, poor fit].

With Cc1ccc(Cl)cc1-n1ncc2c(N3CCCCCC3)ncnc21 as the molecule, how does the Potency read?
The Potency was inconclusive: 20 µM [cytotoxic, partial curve].

Which Potency does the source give for CCN(CC)CCNC(=O)Nc1ccc2c(c1)N(Cc1ccccc1)C(=O)c1ccccc1S2 here?
Its Potency is active: 20 µM.

For O=c1c(O)c(-c2ccccc2)oc2ccccc12, which Potency is on record?
The Potency was inconclusive: 12.6 µM [cytotoxic, partial curve].

With COC(=O)c1ccc(CSc2nc3c(c(=O)n2-c2ccc(C)cc2)SCC3)o1 as the molecule, how does the Potency read?
The Potency was inconclusive: 31.6 µM [cytotoxic, single point].

For COc1ccc(-c2coc3ccc(OC4OC(COC(C)=O)C(OC(C)=O)C(OC(C)=O)C4OC(C)=O)cc3c2=O)cc1 (centres undefined), which Potency is on record?
Its Potency is inconclusive: 2 µM [cytotoxic, full curve, poor fit].

With N#C/C(=C\c1ccc(O)cc1)C(=O)NCC1CCCO1 (centres undefined) as the molecule, how does the “activity change, negative = cell killing” value read?
Its value is inactive: -9.51%.
